Measurements reported in patent publication US20220267443A1 (published 2022).
Read-outs that look alike come from different tables or passages of the source.

What was measured:
[1] = target: T1, recombinant human CTLA-4-Fc (R&D Systems, #7268-CT) (UniProt P16410 36-161)
Human CTLA-4 monomer = test: SPR
[2] = target: Cynomolgus CTLA-4 monomer; test: SPR
[3] = target: T1, recombinant human CTLA-4-Fc (R&D …); test: SPR
[4] = target: recombinant mouse CTLA-4-Fc (UniProt P09793 36-161); test: SPR
[5] = target: recombinant cynomolgus CTLA-4-Fc (Sino Biological, #90213-C02H) (UniProt P16410 36-161); test: SPR
[6] = target: human CTLA-4 expressed on cells (Jurkat cells over-expressing human CTLA-4); activated or PHA-stimulated … (UniProt P16410 36-223); test: flow cytometry

Sequence of UniProt P09793 (P09793 36-161): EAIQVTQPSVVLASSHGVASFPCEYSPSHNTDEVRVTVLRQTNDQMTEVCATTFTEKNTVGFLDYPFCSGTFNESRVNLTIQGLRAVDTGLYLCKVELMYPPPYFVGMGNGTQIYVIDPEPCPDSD

| Kd [1] | Kd (Human CTLA-4 monomer) | Kd [2] | Kd [3] | Kd [4] | Kd [5] | EC50 [6] | Binder |
| --- | --- | --- | --- | --- | --- | --- | --- |
| 0.6 nM | 0.8 nM | 1.6 nM | 0.6 nM | 9.9 nM | 6.2 nM | – | AGEN1884 (antibody) heavy: EVQLVESGGGLVKPGGSLRLSCAASGFTFSSYSMNWVRQAPGKGLEWVSSISSSSSYIYYADSVKGRFTISRDNAKNSLYLQMNSLRAEDTAVYYCARVGLMGPFDIWGQGTMVTVSSASTKGPSVFPLAPSSKSTSGGTAALGCLVKDYFPEPVTVSWNSGALTSGVHTFPAVLQSSGLYSLSSVVTVPSSSLGTQTYICNVNHKPSNTKVDKRV[sequence of human IgG1 Fc omitted] light: EIVLTQSPGTLSLSPGERATLSCRASQSVSRYLGWYQQKPGQAPRLLIYGASTRATGIPDRFSGSGSGTDFTLTITRLEPEDFAVYYCQQYGSSPWTFGQGTKVEIKRSVAAPSVFIFPPSDEQLKSGTASVVCLLNNFYPREAKVQWKVDNALQSGNSQESVTEQDSKDSTYSLSSTLTLSKADYEKHKVYACEVTHQGLSSPVTKSFNRGEC |
| – | – | – | – | – | – | 0.031 µg/mL | AGEN1884w (antibody) heavy: EVQLVESGGGLVKPGGSLRLSCAASGFTFSSYSMNWVRQAPGKGLEWVSSISSSSSYIYYADSVKGRFTISRDNAKNSLYLQMNSLRAEDTAVYYCARVGLMGPFDIWGQGTMVTVSSASTKGPSVFPLAPSSKSTSGGTAALGCLVKDYFPEPVTVSWNSGALTSGVHTFPAVLQSSGLYSLSSVVTVPSSSLGTQTYICNVNHKPSNTKVDKRV[sequence of human IgG1 Fc omitted] light: EIVLTQSPGTLSLSPGERATLSCRASQSVSRYLGWYQQKPGQAPRLLIYGASTRATGIPDRFSGSGSGTDFTLTITRLEPEDFAVYYCQQYGSSPWTFGQGTKVEIKRTVAAPSVFIFPPSDEQLKSGTASVVCLLNNFYPREAKVQWKVDNALQSGNSQESVTEQDSKDSTYSLSSTLTLSKADYEKHKVYACEVTHQGLSSPVTKSFNRGEC |
